Reference: paper PMC3931744, “Discovery of Selective Inhibitors of the Clostridium difficile Dehydroquinate Dehydratase” (PLoS ONE, 2014)
Several values for one entry are separate records, joined by “and”; a condition that tells them apart may be missing. Equal entries are not always repeated.

Target: cdDHQD (type I dehydroquinate dehydratase) (Clostridioides difficile, UniProt Q186A6)
Test: biochemical

Chain of UniProt Q186A6 (Q186A6 whole entry): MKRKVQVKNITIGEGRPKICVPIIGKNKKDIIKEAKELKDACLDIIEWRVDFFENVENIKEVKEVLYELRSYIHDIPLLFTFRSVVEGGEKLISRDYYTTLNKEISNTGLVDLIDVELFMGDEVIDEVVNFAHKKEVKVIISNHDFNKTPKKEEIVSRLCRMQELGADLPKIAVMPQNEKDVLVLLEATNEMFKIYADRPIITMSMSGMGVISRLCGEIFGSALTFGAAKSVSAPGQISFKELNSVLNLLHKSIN

| SMILES | IC50 |
| --- | --- |
| O=S(=O)(Nc1nc(-c2ccccc2)cs1)c1cc(Cl)ccc1Cl [Compound 1] | ~30 µM and 34 µM |
| COc1ccc2nc(NS(=O)(=O)c3cc(Cl)ccc3Cl)sc2c1 [Compound 2] | ~30 µM and 35 µM |
| O=C(O)c1ccccc1NC(=O)c1csc2c1CCCC2 [Compound 3] | ~30 µM and 31 µM |
